# Data taken from patent publication US20210130473A1, “TGFßR1 INHIBITOR-ASGR ANTIBODY CONJUGATES AND USES THEREOF” (Silverback Therapeutics, Inc., priority 2019, published 2021).
# T1: HepG2 cells (which express ASGR1) (Homo sapiens, UniProt P07306)
# T1 construct: endogenous in cells; host or cells: HepG2
# T1 sequence (P07306 1-291): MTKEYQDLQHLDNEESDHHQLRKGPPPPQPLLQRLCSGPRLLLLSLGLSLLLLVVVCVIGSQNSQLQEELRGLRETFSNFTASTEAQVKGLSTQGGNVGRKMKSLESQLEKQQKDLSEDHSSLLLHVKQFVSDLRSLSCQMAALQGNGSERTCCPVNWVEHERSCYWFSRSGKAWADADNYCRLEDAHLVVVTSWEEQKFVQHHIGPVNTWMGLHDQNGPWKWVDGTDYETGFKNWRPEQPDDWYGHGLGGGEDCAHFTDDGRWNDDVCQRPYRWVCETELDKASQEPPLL
# Molecular target: T1, HepG2 cells (which express ASGR1)
# Assay: Guava HepG2 cell binding screen of anti-ASGR1 mAbs
# Conditions: humanized G2D clones; two numbers per cell, their meaning is not given
# Experimental: Additionally, hybridomas producing monoclonal antibodies (mAbs) specific for human ASGR1 were prepared from Balb/C mice immunized with ASGR1-AviHis at a service provider using their propriety protocol. Antibody heavy and light chain sequences were obtained, amplified, and cloned. Clone supernatants containing the expressed mAbs were screened for binding to a human ASGR1-IgG1Fc fusion protein, and those with a positive signal as measured by enzyme linked immunosorbent assay (ELISA) were screened for cell binding on HepG2 cells (which express ASGR1). […] The isolated mAbs were further analyzed for the additional characteristics including, for example, titer, low aggregate content following protein A purification, high titer, lack of cross-blocking of ligand GalNac, calcium sensitivity, and cross-reactivity with rat ASGR1 protein.
row,Molecule,Guava HepG2 Screen
1,"hzG2D-26: humanized G2D clone; VL ""grafted into the human germline sequence VKI-L1 with JK4 to generate hzG2D VLa (SEQ ID NO:131)"" (antibody) heavy: QVQLVQSGAEVKKPGASVKVSCKASGYTFTGYYMHWVRQAPGQRLEWMGRINPNNGATNYNQNFKDKASLTVDTSASTAYMELSSLRSEDTAVYYCTSVNFYYWGQGTTVTVSS[… human IgG1 constant region …] light: DIQMTQSPSSLSASVGDRVTITCKASQVINSYLSWFQQKPGKAPETLIYRANTLVDGVPSRFSGSGSGTDFTLTISSLQPEDFATYYCLQYAEFPYTFGGGTKVEIKRTVAAPSVFIFPPSDEQLKSGTASVVCLLNNFYPREAKVQWKVDNALQSGNSQESVTEQDSKDSTYSLSSTLTLSKADYEKHKVYACEVTHQGLSSPVTKSFNRGEC",185/114
2,"hzG2D-2: humanized G2D clone; VL ""grafted into the human germline sequence VKI-L1 with JK4 to generate hzG2D VLa (SEQ ID NO:131)"" (antibody) heavy: QVQLVQSGAEVKKPGASVKVSCKASGYSFTGYYMHWVRQAPGQRLEWMGRINPNNGATNYNQNFKDRVTITRDTSASTAYMELSSLRSEDTAVYYCARVNFYYWGQGTTLTVSS[… human IgG1 constant region …] light: DIQMTQSPSSLSASVGDRVTITCKASQVINSYLSWFQQKPGKAPKSLIYRANTLVDGVPSRFSGSGSGTDFTLTISSLQPEDFATYYCLQYAEFPYTFGGGTKVEIKRTVAAPSVFIFPPSDEQLKSGTASVVCLLNNFYPREAKVQWKVDNALQSGNSQESVTEQDSKDSTYSLSSTLTLSKADYEKHKVYACEVTHQGLSSPVTKSFNRGEC",38/20
3,"hzG2D-29: humanized G2D clone; VL ""grafted into the human germline sequence VKI-L1 with JK4 to generate hzG2D VLa (SEQ ID NO:131)"" (antibody) heavy: QVQLVQSGAEVKKPGASVKVSCKASGYTFTGYYMHWVKQAPGQRLEWMGRINPNNGATNYNQNFKDKASLTVDTSASTAYMELSSLRSEDTAVYYCTSVNFYYWGQGTTVTVSS[… human IgG1 constant region …] light: DIQMTQSPSSLSASVGDRVTITCKASQVINSYLSWFQQKPGKAPKSLIYRANTLVDGVPSRFSGSGSGTDFTLTISSLQPEDFATYYCLQYAEFPYTFGGGTKVEIKRTVAAPSVFIFPPSDEQLKSGTASVVCLLNNFYPREAKVQWKVDNALQSGNSQESVTEQDSKDSTYSLSSTLTLSKADYEKHKVYACEVTHQGLSSPVTKSFNRGEC",189/108
4,"hzG2D-27: humanized G2D clone; VL ""grafted into the human germline sequence VKI-L1 with JK4 to generate hzG2D VLa (SEQ ID NO:131)"" (antibody) heavy: QVQLVQSGAEVKKPGASVKVSCKASGYTFTGYYMHWVRQAPGQRLEWMGRINPNNGATNYNQNFKDKASLTVDTSASTAYMELSSLRSEDTAVYYCTSVNFYYWGQGTTVTVSS[… human IgG1 constant region …] light: DIQMTQSPSSLSASVGDRVTITCKASQVINSYLSWFQQKPGKAPKSLIYRANTLVDGVPSRFSGSGSGTDFTLTISSLEYEDFATYYCLQYAEFPYTFGGGTKVEIKRTVAAPSVFIFPPSDEQLKSGTASVVCLLNNFYPREAKVQWKVDNALQSGNSQESVTEQDSKDSTYSLSSTLTLSKADYEKHKVYACEVTHQGLSSPVTKSFNRGEC",191/116
5,"hzG2D-30: humanized G2D clone; VL ""grafted into the human germline sequence VKI-O2 with JK4 to generate hzG2D VLb (SEQ ID NO:247)"" (antibody) heavy: QVQLVQSGAEVKKPGASVKVSCKASGYTFTGYYMHWVKQAPGQRLEWMGRINPNNGATNYNQNFKDKASLTVDTSASTAYMELSSLRSEDTAVYYCTSVNFYYWGQGTTVTVSS[… human IgG1 constant region …] light: DIQMTQSPSSLSASVGDRVTITCKASQVINSYLSWYQQKPGKAPKLLIYRANTLVDGVPSRFSGSGSGTDFTLTISSLQPEDFATYYCLQYAEFPYTFGGGTKVEIKRTVAAPSVFIFPPSDEQLKSGTASVVCLLNNFYPREAKVQWKVDNALQSGNSQESVTEQDSKDSTYSLSSTLTLSKADYEKHKVYACEVTHQGLSSPVTKSFNRGEC",198/115
6,"hzG2D-28: humanized G2D clone; VL ""grafted into the human germline sequence VKI-L1 with JK4 to generate hzG2D VLa (SEQ ID NO:131)"" (antibody) heavy: QVQLVQSGAEVKKPGASVKVSCKASGYTFTGYYMHWVRQAPGQRLEWMGRINPNNGATNYNQNFKDKASLTVDTSASTAYMELSSLRSEDTAVYYCTSVNFYYWGQGTTVTVSS[… human IgG1 constant region …] light: DIQMTQSPSSLSASVGDRVTITCKASQVINSYLSWFQQKPGKAPKSLIYRANTLVDGVPSRFSGSGSGTDYSLTISSLQPEDFATYYCLQYAEFPYTFGGGTKVEIKRTVAAPSVFIFPPSDEQLKSGTASVVCLLNNFYPREAKVQWKVDNALQSGNSQESVTEQDSKDSTYSLSSTLTLSKADYEKHKVYACEVTHQGLSSPVTKSFNRGEC",145/92

# Other lines, results leading:
row,Guava HepG2 Screen,Molecule
1,194/109,"hzG2D-34: humanized G2D clone; VL ""grafted into the human germline sequence VKI-O2 with JK4 to generate hzG2D VLb (SEQ ID NO:247)"" (antibody) heavy: QVQLVQSGAEVKKPGASVKVSCKASGYTFTGYYMHWVRQAPGQRLEWMGRINPNNGATNYNQNFKDKASLTVDTSASTAYMELSSLTSEDTAVYYCTSVNFYYWGQGTTVTVSS[… human IgG1 constant region …] light: DIQMTQSPSSLSASVGDRVTITCKASQVINSYLSWYQQKPGKAPKLLIYRANTLVDGVPSRFSGSGSGTDFTLTISSLQPEDFATYYCLQYAEFPYTFGGGTKVEIKRTVAAPSVFIFPPSDEQLKSGTASVVCLLNNFYPREAKVQWKVDNALQSGNSQESVTEQDSKDSTYSLSSTLTLSKADYEKHKVYACEVTHQGLSSPVTKSFNRGEC"
2,164/85,"hzG2D-33: humanized G2D clone; VL ""grafted into the human germline sequence VKI-L1 with JK4 to generate hzG2D VLa (SEQ ID NO:131)"" (antibody) heavy: QVQLVQSGAEVKKPGASVKVSCKASGYTFTGYYMHWVRQAPGQRLEWMGRINPNNGATNYNQNFKDKASLTVDTSASTAYMELSSLTSEDTAVYYCTSVNFYYWGQGTTVTVSS[… human IgG1 constant region …] light: DIQMTQSPSSLSASVGDRVTITCKASQVINSYLSWFQQKPGKAPKSLIYRANTLVDGVPSRFSGSGSGTDFTLTISSLQPEDFATYYCLQYAEFPYTFGGGTKVEIKRTVAAPSVFIFPPSDEQLKSGTASVVCLLNNFYPREAKVQWKVDNALQSGNSQESVTEQDSKDSTYSLSSTLTLSKADYEKHKVYACEVTHQGLSSPVTKSFNRGEC"
3,167/103,"hzG2D-32: humanized G2D clone; VL ""grafted into the human germline sequence VKI-O2 with JK4 to generate hzG2D VLb (SEQ ID NO:247)"" (antibody) heavy: QVQLVQSGAEVKKPGASVKVSCKASGYTFTGYYMHWVRQAPGQRLEWMGRINPNNGATNYNQNFKDKASLTVDTSASTAYMEFHSLRSEDTAVYYCTSVNFYYWGQGTTVTVSS[… human IgG1 constant region …] light: DIQMTQSPSSLSASVGDRVTITCKASQVINSYLSWYQQKPGKAPKLLIYRANTLVDGVPSRFSGSGSGTDFTLTISSLQPEDFATYYCLQYAEFPYTFGGGTKVEIKRTVAAPSVFIFPPSDEQLKSGTASVVCLLNNFYPREAKVQWKVDNALQSGNSQESVTEQDSKDSTYSLSSTLTLSKADYEKHKVYACEVTHQGLSSPVTKSFNRGEC"
4,168/95,"hzG2D-31: humanized G2D clone; VL ""grafted into the human germline sequence VKI-L1 with JK4 to generate hzG2D VLa (SEQ ID NO:131)"" (antibody) heavy: QVQLVQSGAEVKKPGASVKVSCKASGYTFTGYYMHWVRQAPGQRLEWMGRINPNNGATNYNQNFKDKASLTVDTSASTAYMEFHSLRSEDTAVYYCTSVNFYYWGQGTTVTVSS[… human IgG1 constant region …] light: DIQMTQSPSSLSASVGDRVTITCKASQVINSYLSWFQQKPGKAPKSLIYRANTLVDGVPSRFSGSGSGTDFTLTISSLQPEDFATYYCLQYAEFPYTFGGGTKVEIKRTVAAPSVFIFPPSDEQLKSGTASVVCLLNNFYPREAKVQWKVDNALQSGNSQESVTEQDSKDSTYSLSSTLTLSKADYEKHKVYACEVTHQGLSSPVTKSFNRGEC"
